# Hit rate of the full screen: of about 52,000 compounds, about 4,300 (8.3%) were called active. Cut-off read from the data, not from the text of the source: active = survival mostly below about 52% (no sharp cut-off); inactive = mostly above about 56%. This is one part of the list.
# Test system: DeltatarO mutant
# Assay: growth inhibition of S. aureus wild type versus tarO mutant, primary screen, teichoic acid synthesis inhibitors, RN4220, OD600 (AID 463173)
# Conditions: OD600, 18 h, active compounds read low, screened at 18.75 µg/mL (by protocol)
row,SMILES,survival
1,CCCCN(CCCC)CCCNC(=O)c1ccc2nc(N3CCCCC3)sc2c1,inactive: 102%
2,COc1ccc2c(c1)c1c(c(=O)n(-c3cc(Cl)ccc3C)c(=O)n1CC(=O)N1CCCC1)n2C,inactive: 83%
3,COc1ccc(-c2nnn3c2nc(NCCc2ccc(OC)c(OC)c2)c2ccccc23)cc1,inactive: 66%
4,Cc1nn2c(=O)cc(COc3ccc(/C=C(\C#N)C(=O)Nc4ccccc4C)cc3)nc2s1,inactive: 49%
5,COc1ccc(OC)c(Nc2nc3ccccc3nc2-n2nc(C)cc2C)c1,active: 16%
6,CCN(CC)S(=O)(=O)c1ccc(Cl)c(OC)c1,inactive: 101%
7,CCCc1cc(=O)[nH]c(SCc2nc(-c3ccc(OCC)cc3)no2)n1,inactive: 55%
8,Cc1ccc(-c2noc(-c3ccc(N4CCCC4)c([N+](=O)[O-])c3)n2)cc1,inactive: 103%
9,Cc1ccc(C(=O)Nc2c(C(=O)Nc3ccc(C)c(C)c3)sc3nc(C)cc(C)c23)cc1,inactive: 54%
10,CC1(C)CC(NS(=O)(=O)c2ccccc2)CC(C)(C)N1,inactive: 74%
11,Cc1ccc(C2C=C(c3ccccc3)Nc3nc(NS(C)(=O)=O)nn32)cc1 (stereo not given),inactive: 67%
12,Cc1c(-c2ccccc2)c(=O)oc2c(CN3CCOCC3)c(O)ccc12,inactive: 55%
13,COc1ccc(NC(=O)C2CCN(c3cc(C)nc4c(-c5ccc(Cl)cc5)c(C)nn34)CC2)cc1,inactive: 90%
14,CCc1cccc(C)c1NC(=O)CSc1nc2ccncc2[nH]1,inactive: 137%
15,CCN(CC)S(=O)(=O)c1ccc(-n2cnnn2)c(C)c1,inactive: 111%
16,COc1cc(-c2cc(OC)c3c(C)oc(C)c3c(=O)c2)ccc1OC(=O)c1cccc(C)c1,inactive: 91%
17,Cc1nn(S(=O)(=O)c2ccc(F)cc2)c(C)c1S(=O)(=O)N1CCCCCC1,inactive: 64%
18,CC(C)Nc1nc(Cl)nc(NCCO)n1,inactive: 110%
19,Cc1ccc(CNC(=O)c2ccc3c(c2)c(C)c(C)n3Cc2ccc(Cl)cc2)o1,inactive: 75%
20,Cc1ccc(/C=C/C(=O)Nc2ccc3nc(N4CCC(C)CC4)cc(C)c3c2)cc1,inactive: 122%
21,CCOc1ccc(C(=O)Nc2ccc3nc(N(CC)CC)cc(C)c3c2)cc1,inactive: 70%
22,Cc1cc(N2CCC(C(=O)Nc3ccc(F)cc3F)CC2)n2nc(C)c(-c3ccc(Cl)cc3)c2n1,inactive: 86%
23,Cn1c(=O)oc2cc(S(=O)(=O)NC(Cc3ccccc3)C(=O)Nc3ccc(F)c(Cl)c3)ccc21 (stereo not given),inactive: 83%

row,SMILES,survival
1,CCOC(=O)C1CCN(Cc2cn3c(-c4ccc(OC)cc4)nnc3s2)CC1,inactive: 66%
2,COc1cccc(NS(=O)(=O)c2ccc3[nH]cc(C(=O)NC(C)c4ccccc4)c(=O)c3c2)c1 (stereo not given),active: 37%
3,Cc1ccccc1CN1CCCN(CC(=O)Nc2ccc(F)cc2)S1(=O)=O,inactive: 93%
4,Cc1cccc(NC(=O)c2cn(-c3ccccc3)nc2-c2ccccc2)c1C,inactive: 97%
5,CCOC(=O)c1c(C)oc2nc(C)nc(NCCc3ccc(Cl)cc3)c12,inactive: 99%
6,Cc1ccc(NC(=O)Cn2c(=O)n(Cc3ccc4c(c3)OCO4)c(=O)c3oc4ccccc4c32)cc1C,inactive: 53%
7,CC(C)c1ccc(NC(=O)Cn2nnc(C(=O)NCc3ccc4c(c3)OCO4)c2N)cc1,inactive: 75%
8,CCc1cccc(NC(=O)c2ccc3c(c2)N(Cc2cccc(Cl)c2)C(=O)c2ccccc2S3=O)c1 (stereo not given),inactive: 78%
9,CCOC(=O)c1c(-c2ccc(C)cc2)csc1NC(=O)c1cc(-c2ccc(OC)cc2)on1,inactive: 49%
10,COc1ccc(-c2cc(C(F)(F)F)nc(SCCC(=O)N3CCN(C)CC3)n2)cc1,inactive: 114%
11,Cc1cccc(N(C)C(=O)CCS(=O)(=O)c2ccc3c(c2)n(C)c(=O)c(=O)n3C)c1,inactive: 81%
12,CCN(c1cccc(C)c1)S(=O)(=O)c1cc2c(cc1C)n(C)c(=O)c(=O)n2C,inactive: 85%
13,COc1ccc(OCCSc2nc(C)cc(=O)[nH]2)cc1,inactive: 81%
14,CCOc1cccc2sc(NC(=O)c3ccc(S(=O)(=O)N4CCCCC4C)cc3)nc12 (stereo not given),active: 37%
15,O=C(c1cc(-c2ccc(Cl)cc2)n[nH]1)N1CCN(S(=O)(=O)c2ccc(Br)s2)CC1,inactive: 86%
16,CCOC(=O)c1c(C)[nH]c(C)c1S(=O)(=O)N1CCN(c2cc(Cl)ccc2C)CC1,inactive: 108%
17,Cc1nnc(NC(=O)c2nc(SC(C)C)ncc2Cl)s1,inactive: 72%
18,CCOc1ccc(NC(=O)c2sc(-n3nc(C)c(Cc4ccc(Cl)cc4)c3C)nc2C)cc1,inactive: 73%
19,Clc1ccccc1Cn1c(-c2cccs2)nc2ccccc21,active: 11%
20,CCOC(=O)C1Cc2c([nH]c3ccccc23)CN1 (stereo not given),inactive: 86%
21,CCN(CC)CCCNC(=O)c1ccc2c(c1)sc1nc(-c3ccc(C)cc3)cn12,active: 24%
22,CCCCOc1ccc(C(=O)Nc2cc(-c3cn4cccnc4n3)ccc2OC)cc1,inactive: 84%
23,COc1ccc(CCNS(=O)(=O)c2c(C)nc3sc(C)cn3c2=O)cc1OC,inactive: 96%

row,SMILES,survival
1,Cc1cc(Nc2cccc(C(=O)O)c2)n2nc(C)nc2n1,inactive: 115%
2,Cc1cccc(NC(=O)CN(C)S(=O)(=O)c2ccc3c(c2)c(=O)n(C)c(=O)n3C)c1C,inactive: 135%
3,C=Cn1cccc1C(=O)O,inactive: 83%
4,COc1ccc(-c2nc3ccccc3o2)cc1NC(=O)c1cccnc1,active: 45%
5,COc1ccc(CCNC(=O)c2ccc3c(c2)N=C(C)c2ccccc2S3)cc1OC,inactive: 71%
6,CCCn1c2ccccc2c2cnn(CC(=O)NCCN(CC)CC)c(=O)c21,inactive: 54%
7,Cc1c(CNC2CCCCCC2)c(C(=O)O)c(C)n1Cc1cccc(Cl)c1,inactive: 123%
8,Cc1cccc(CNC(=O)Cn2nc(C)c3nn(-c4ccc(Cl)cc4)c(C)c3c2=O)c1,inactive: 55%
9,O=C(CSc1nc(Nc2ccccc2)c2ccccc2n1)c1ccc(Cl)cc1,inactive: 84%
10,Cc1ccccc1Nc1c(-c2c[nH]c3ccccc23)nc2ccc(Cl)cn12,inactive: 115%
11,Cc1cc(C)cc(NC(=O)NCc2c(-n3cccc3)sc3c2CCCC3)c1,inactive: 101%
12,Cc1cccc(OC(=O)CSc2nnc(-c3cccs3)o2)c1C,inactive: 71%
13,Cc1ccc(-n2ncc(C(=O)N3CCN(c4ccccc4F)CC3)c2C2CCN(C(=O)OC(C)(C)C)CC2)cc1C,inactive: 71%
14,CSc1ncc(Cl)c(C(=O)Nc2c(C(=O)c3ccc(Cl)cc3)oc3ccccc23)n1,inactive: 71%
15,CCOC(=O)c1c(S(=O)(=O)N2CCCC(C(=O)Nc3cccc(CC)c3)C2)c(C)n(CC)c1C (stereo not given),inactive: 102%
16,Cc1c(NC(=O)Cc2ccc(Cl)cc2)cccc1-c1nc2cccnc2s1,inactive: 114%
17,CCOc1ccc(CNC(=O)c2ccc(NC(=O)N3CCCCc4ccccc43)cc2)cc1,inactive: 89%
18,CCOC(=O)c1c(C)[nH]c(C)c1S(=O)(=O)NCC(=O)Nc1cccc(Cl)c1,inactive: 87%
19,O=C(NCCc1cccs1)c1ccc(Cn2c(SCc3cccc(F)c3)nc3cccnc32)cc1,inactive: 79%
20,Fc1cccc(CN2CCc3nc(Nc4ccc5c(c4)OCCO5)ncc3C2)c1F,inactive: 91%
21,Cc1ccccc1S(=O)Cc1ccc(C(=O)NCc2ccccc2Cl)o1 (stereo not given),inactive: 73%
22,COc1ccc(-c2csc3ncnc(Nc4ccccc4)c23)cc1,inactive: 107%
23,Cc1ccc(CSC2=NC(C)(C)Nc3ccccc32)c(C)c1,inactive: 98%

row,SMILES,survival
1,O=C(Cn1cc(C(=O)c2ccco2)c2ccccc21)Nc1ccccc1C(F)(F)F,inactive: 74%
2,COc1ccc(-c2noc(N3CCC(C(=O)N4CCN(c5cccc(OC)c5)CC4)CC3)n2)cc1,inactive: 84%
3,CCOc1ccccc1NC(=O)Cn1c(=O)oc2ccccc21,inactive: 101%
4,CCOC(=O)c1c(-c2ccccc2)oc2ccc(OCc3ccccc3Br)cc12,active: 38%
5,COc1ccc(NC(=O)Cn2cc(C(=O)c3ccc(C)c(C)c3)c(=O)c3cc(OC)ccc32)cc1,inactive: 72%
6,COC(=O)c1scc(-c2ccc(C)cc2)c1S(=O)(=O)Nc1cc(C)c(Cl)cc1OC,inactive: 117%
7,Clc1cccc(CNCCCSc2nnnn2-c2ccccc2)c1,inactive: 68%
8,Cc1cc(C)c(C#N)c(N2CCC(C(N)=O)CC2)n1,inactive: 90%
9,Cc1cccc(N2CCN(C(=O)CCS(=O)(=O)c3ccc4c(c3)CC(=O)N4C)CC2C)c1 (stereo not given),active: -2%
10,Cc1cccc(C(c2sc3nc(-c4ccco4)nn3c2O)N2CCOCC2)c1 (stereo not given),inactive: 86%
11,CCCCOC(=O)c1ccc(NC(=O)c2ccc3c(c2)CCN3S(C)(=O)=O)cc1,inactive: 96%
12,CC(=O)N1CCN(c2csc3ccc(Cl)cc3c2=O)CC1,inactive: 95%
13,Cc1ccc(NS(=O)(=O)c2ccc3c(c2)n(C)c(=O)n3C)c(C)c1,inactive: 86%
14,CCCCCCN1C(=O)c2ccc(Br)cc2C1=O,inactive: 101%
15,Cc1ccc(NC(=O)Cn2cc3c(n2)CCCC3)cc1Cl,inactive: 87%
16,COc1ccc(C)c2sc(N(Cc3cccnc3)C(=O)c3cccs3)nc12,inactive: 88%
17,CCN1CCc2c(sc(-n3cccc3)c2C(C)NC(=O)Nc2ccc(C(=O)OC)cc2)C1 (stereo not given),inactive: 94%
18,COc1ccc(CNS(=O)(=O)c2ccc(-c3cc(C(F)(F)F)on3)s2)cc1OC,inactive: 118%
19,COc1ccc(CNC(=O)c2nn(C)c3c2CSc2ccccc2-3)cc1,inactive: 73%
20,O=C(Nc1cccc(F)c1)c1cnc2sc(N3CCCC3)nn2c1=O,inactive: 71%
21,COc1cc(C2C=C(C(=O)O)Nc3ncnn32)ccc1O (stereo not given),inactive: 88%

# Reference: PubChem BioAssay AID463173 (ICCB-Longwood Screening Facility, Harvard Medical School, 2010)
